Screen size: about 39,000 compounds; about 220 (0.56%) showed activity. This is one part of the list.
Tested on: Escherichia coli K-12 BW25113
Assay: relative growth (OD600 normalised to plate interquartile mean) (fraction); higher = less growth inhibition, active = 0.2 or less
Settings: 50 µM; LB; incubation time: overnight (16-24 h)
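Also: static incubation at 37 °C against the wild-type strain, values averaged over two biological replicates.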

Row | SMILES | relative growth
1 | C[C@H]1CN([C@@H](C)CO)C(=O)c2cc(C#CCN(C)C)cnc2O[C@@H]1CN(C)C(=O)CN1CCOCC1 | inactive: 0.993
2 | S=C1NCNCN1 | inactive: 1
3 | C[C@H](CO)N1C[C@H](C)[C@H](CN(C)S(=O)(=O)c2ccccc2F)Oc2ncc(C#Cc3ccccc3)cc2C1=O | inactive: 1.01
4 | CC(C)NC(=O)Nc1ccc2c(c1)C(=O)N([C@H](C)CO)C[C@@H](C)[C@H](CN(C)S(=O)(=O)c1cn(C)cn1)OCCCC[C@@H](C)O2 | inactive: 1.02
5 | COc1ccc(S(=O)(=O)N(C)C[C@@H]2Oc3ccc(NS(=O)(=O)c4c(C)noc4C)cc3C(=O)N([C@H](C)CO)C[C@H]2C)cc1 | inactive: 0.977
6 | Cl.O=C(Nc1ccccc1)OCC(CN1CCCCC1)OC(=O)Nc1ccccc1 (stereo unspecified) | inactive: 0.934
7 | C[C@@H]1CN([C@@H](C)CO)C(=O)c2cc(NC(=O)Nc3cccc4ccccc34)ccc2O[C@@H](C)CCCCO[C@H]1CN(C)Cc1ccccc1 | inactive: 1.02
8 | C[C@H]1CN([C@@H](C)CO)C(=O)CCCn2nncc2CO[C@@H]1CN(C)C(=O)Nc1cccc2ccccc12 | inactive: 1
9 | c1cn2c(n1)NCC2 | inactive: 1
10 | C[C@@H]1CN([C@H](C)CO)C(=O)c2cc(NC(=O)CCCN(C)C)ccc2O[C@@H]1CN(C)Cc1ccccc1 | inactive: 0.984
11 | C[C@@H]1CN([C@H](C)CO)C(=O)Cc2cc(NC(=O)Nc3ccc(C(F)(F)F)cc3)ccc2O[C@H]1CN(C)C(=O)Nc1ccc(F)cc1 | inactive: 1.01
12 | CC(C)NC(=O)N(C)C[C@H]1Oc2ncc(-c3ccc(C(=O)N(C)C)cc3)cc2C(=O)N([C@H](C)CO)C[C@H]1C | inactive: 0.979
13 | O=C(C[C@@H]1CC[C@H]2[C@@H](COC[C@@H](O)CN2S(=O)(=O)c2ccccc2)O1)NCc1ccc(-c2ccccc2)cc1 | inactive: 0.946
14 | Cc1cc(C(=O)Nc2cccc3c2O[C@H](CN(C)Cc2ccc4c(c2)OCO4)[C@H](C)CN([C@@H](C)CO)C3=O)n(C)n1 | inactive: 0.984
15 | CC(C)(C)NC(=O)[C@@H]1CN(Cc2cccnc2)CCN1C[C@@H](O)C[C@@H](Cc1ccccc1)C(=O)N[C@H]1c2ccccc2C[C@H]1O | inactive: 1.01
16 | COc1ccc(S(=O)(=O)N(C)C[C@H]2Oc3ccc(NS(C)(=O)=O)cc3C(=O)N([C@@H](C)CO)C[C@@H]2C)cc1 | inactive: 0.984
17 | C[C@H](CO)N1C[C@H](C)[C@@H](CN(C)CC2CC2)Oc2ccc(NS(=O)(=O)c3cccs3)cc2CC1=O | inactive: 0.974
18 | C[C@@H]1CN([C@@H](C)CO)C(=O)Cc2cc(NC(=O)Nc3cccc4ccccc34)ccc2O[C@@H]1CN(C)Cc1ccc(C(=O)O)cc1 | inactive: 0.999
19 | C[C@@H](NC(=O)C[C@@H]1C=C[C@H](NC(=O)CN2CCOCC2)[C@H](CO)O1)c1ccccc1 | inactive: 1.02
20 | Cc1noc(C)c1S(=O)(=O)Nc1ccc2c(c1)C(=O)N([C@@H](C)CO)C[C@H](C)[C@@H](CN(C)Cc1ccncc1)O2 | inactive: 0.952
21 | Cc1noc(C)c1S(=O)(=O)Nc1ccc2c(c1)C(=O)N([C@H](C)CO)C[C@H](C)[C@@H](CN(C)C(=O)Nc1ccc(F)cc1)OCCCC[C@H](C)O2 | inactive: 0.982

Row | SMILES | relative growth
22 | C[C@H]1CN([C@@H](C)CO)C(=O)Cc2cc(NC(=O)Nc3cccc4ccccc34)ccc2O[C@H]1CN(C)C(=O)Nc1ccc2c(c1)OCO2 | inactive: 0.99
23 | Cc1ccc(S(=O)(=O)Nc2ccc3c(c2)C(=O)N([C@@H](C)CO)C[C@@H](C)[C@@H](CN(C)S(=O)(=O)c2ccc(F)cc2)OCCCC[C@@H](C)O3)cc1 | inactive: 1
24 | C[C@@H]1CCCCO[C@@H](CN(C)Cc2ccccc2)[C@H](C)CN([C@H](C)CO)C(=O)c2cc(NC(=O)c3ccncc3)ccc2O1 | inactive: 0.948
25 | O=C1O[C@@H](c2ccccc2)[C@@H](c2ccccc2)N2[C@@H](c3ccc(OCCO)cc3)[C@]3(C(=O)Nc4ccc(C#CC5(O)CCCCCC5)cc43)[C@@H](C(=O)Nc3nc4ccccc4s3)[C@H]12 | inactive: 1
26 | COc1ccc2c(c1)OC(C)(C)C[C@@H]2N | inactive: 0.985
27 | CCC1OC(=O)C(C)C(OC2CC(C)(OC)C(O)C(C)O2)C(C)C(OC2OC(C)CC(N(C)C)C2O)C(C)(O)CC(C)C(=NOCOCCOC)C(C)C(O)C1(C)O (stereo unspecified) | inactive: 0.613
28 | O=C(C[C@H]1CC[C@H]2NC[C@@H](O)COC[C@@H]2O1)NCCN1CCCC1 | inactive: 1.02
29 | COc1ccc(S(=O)(=O)Nc2ccc3c(c2)C(=O)N([C@H](C)CO)C[C@@H](C)[C@H](CN(C)C(=O)NC2CCCCC2)OCCCC[C@H](C)O3)cc1 | inactive: 0.994
30 | CC(C)NC(=O)Nc1ccc2c(c1)CC(=O)N([C@@H](C)CO)C[C@@H](C)[C@H](CN(C)S(=O)(=O)c1ccc(Cl)cc1)O2 | inactive: 0.997
31 | C[C@H](CO)N1C[C@H](C)[C@H](CN(C)Cc2ccccc2)Oc2cc(C#CC(C)(C)O)ccc2S1(=O)=O | inactive: 0.988
32 | Cc1ccc(S(=O)(=O)N(C)C[C@@H]2Oc3ccc(NS(=O)(=O)c4cn(C)cn4)cc3CC(=O)N([C@@H](C)CO)C[C@H]2C)cc1 | inactive: 0.989
33 | COC(=O)c1ccc(CNC(=N)N)cc1 | inactive: 1.01
34 | N[C@H]1CS(=O)(=O)c2ccccc21 | inactive: 0.927
35 | C[C@H]1CCCCO[C@H](CN(C)Cc2ccc3c(c2)OCO3)[C@@H](C)CN([C@@H](C)CO)C(=O)c2cc(NC(=O)c3ccccc3)ccc2O1 | inactive: 1.01
36 | Cc1cc(C)n(C(N)=S)n1 | inactive: 0.941
37 | C[C@@H]1CN([C@@H](C)CO)C(=O)c2cc(NC(=O)Nc3cccc4ccccc34)ccc2O[C@@H](C)CCCCO[C@@H]1CN(C)CC1CCCCC1 | inactive: 1.03
38 | COC(=O)[C@@H](Cc1ccc(-n2cc(COc3ccccc3/C=C(C)/C=C/C(=O)NO)nn2)cc1)N1CC2=CCCC=C[C@@H]2[C@H]1[C@H](O)Cc1ccccc1 | inactive: 0.833
39 | C[C@H]1CN([C@@H](C)CO)C(=O)c2cccc(NC(=O)Nc3ccc(F)cc3)c2O[C@H]1CN(C)C(=O)Nc1cccc2ccccc12 | inactive: 0.992
40 | Cc1ccc(S(=O)(=O)Nc2ccc3c(c2)CC(=O)N([C@@H](C)CO)C[C@@H](C)[C@@H](CN(C)S(C)(=O)=O)O3)cc1 | inactive: 1
41 | CO[C@@H]1CN(C)C(=O)c2ccc(NC(=O)C3CCCC3)cc2OC[C@@H](C)N(C(=O)Nc2ccc(C(F)(F)F)cc2)C[C@H]1C | inactive: 0.967
42 | CC(=O)N1CCC[C@H](C(=O)O)C1 | inactive: 0.991

Row | SMILES | relative growth
43 | C[C@H](CO)N1C[C@H](C)[C@@H](CN(C)S(=O)(=O)c2ccc3ccccc3c2)OCc2cnnn2CCCC1=O | inactive: 0.985
44 | NC[C@@H](O)CC(=O)O | inactive: 1
45 | Clc1ccc(/C=C/C2=Nc3cccc4cccc(c34)N2)cc1 | inactive: 1.08
46 | C[C@@H]1CN([C@H](C)CO)C(=O)c2cc(NS(=O)(=O)c3ccc(Cl)cc3)ccc2O[C@@H]1CN(C)Cc1ccc(Oc2ccccc2)cc1 | inactive: 0.96
47 | CC(C)(Oc1ccc(C2CC2(Cl)Cl)cc1)C(=O)O (stereo unspecified) | inactive: 1.06
48 | C[C@H]1CCCCO[C@H](CN(C)C(=O)Nc2ccc3c(c2)OCO3)[C@@H](C)CN([C@@H](C)CO)C(=O)c2cc(NC(=O)Nc3ccc(F)cc3)ccc2O1 | inactive: 1.04
49 | C[C@@H]1CCCCO[C@@H](CN(C)C(=O)Nc2ccc(C(F)(F)F)cc2)[C@H](C)CN([C@H](C)CO)C(=O)c2cc(NC(=O)c3ccccc3)ccc2O1 | inactive: 1.05
50 | COc1ccccc1CNC(=O)C[C@@H]1C[C@@H]2c3cc(NC(=O)Nc4ccc(C(F)(F)F)cc4)ccc3O[C@@H]2[C@H](CO)O1 | inactive: 0.927
51 | C[C@H]1CN([C@@H](C)CO)C(=O)Cc2cc(NC(=O)CCCCCC(=O)Nc3ccccc3N)ccc2O[C@H]1CN(C)Cc1ccc(Oc2ccccc2)cc1 | inactive: 0.973
52 | C[C@@H]1CCCCO[C@@H](CN(C)C(=O)CCCN(C)C)[C@H](C)CN([C@H](C)CO)C(=O)c2cc(NC(=O)Nc3ccc(C(F)(F)F)cc3)ccc2O1 | inactive: 0.955
53 | CC(C)NC(=O)N(C)C[C@@H]1Oc2ccc(NC(=O)CCC(F)(F)F)cc2CC(=O)N([C@H](C)CO)C[C@H]1C | inactive: 1.02
54 | C[C@@H]1CCCCO[C@H](CN(C)C(=O)CCCN(C)C)[C@H](C)CN([C@H](C)CO)C(=O)c2cc(NS(C)(=O)=O)ccc2O1 | inactive: 1.01
55 | C[C@@H]1CN([C@@H](C)CO)C(=O)c2cccc(NC(=O)C3CC3)c2O[C@H]1CN(C)Cc1ccc(-c2ccccc2)cc1 | inactive: 0.99
56 | COc1cccc2c1C(=O)c1c(O)c3c(c(O)c1C2=O)C[C@@](O)(C(C)=O)C[C@@H]3O[C@H]1C[C@H](N)[C@H](O)[C@H](C)O1 | inactive: 1
57 | COc1ccc(S(=O)(=O)Nc2ccc3c(c2)C(=O)N([C@H](C)CO)C[C@H](C)[C@H](CN(C)Cc2ccc4c(c2)OCO4)OCCCC[C@@H](C)O3)cc1 | inactive: 0.955
58 | COc1ccc(S(=O)(=O)N(C)C[C@@H]2OCc3cnnn3CCCC(=O)N([C@H](C)CO)C[C@@H]2C)cc1 | inactive: 0.991
59 | C[C@@H]1CN([C@H](C)CO)C(=O)c2cc(NC(=O)C3CCCCC3)ccc2O[C@@H](C)CCCCO[C@@H]1CN(C)S(=O)(=O)c1cccs1 | inactive: 0.933
60 | C=CC(=O)NCCN1CCOCC1 | inactive: 0.994
61 | C[C@@H]1CN([C@@H](C)CO)C(=O)c2cc(N(C)C)ccc2O[C@@H](C)CCCCO[C@@H]1CN(C)Cc1ccc(C(F)(F)F)cc1 | inactive: 0.975

— the supplement of paper PMC9446081
